Laboratory results published in the supplement of paper PMC12217912.
The other results are listed elsewhere or left out. The full chains were built here from the parent and the listed change. Inactive controls read about 0.05.

B1: TEV protease; numbered along this chain (parent)
chain: MGESLFKGPRDYNPISSSICHLTNESDGHTTSLYGIGFGPFIITNKHLFRRNNGTLVVQSLHGVFKVKDTTTLQQHLVDGRDMIIIRMPKDFPPFPQKLKFREPQREERICLVTTNFQTKSMSSMVSDTSCTFPSGDGIFWKHWIQTKDGQCGSPLVSTRDGFIVGIHSASNFTNTNNYFTSVPKNFMELLTNQEAQQWVSGWRLNADSVLWGGHKVFMVKPEEPFQPVKEATQL

Variants of: B1
Experiment: raw area under fraction-flipped curve 0-4 h after induction (AUC4h, not background-subtracted), DNA-recorder readout of cleavage of the substrate (dimensionless); higher = more cleavage of the substrate by the protease variant
Details: temperature: 34 °C; time window: 0-4 h after rhamnose induction
Experimental: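 In vivo DNA recorder in E. coli TOP10(DE3) ΔrhaA at 34 °C. Each TEVp single-site mutant (parent TEVp 0) is paired with a single-site variant of the 7-mer TEVs (canonical ENLYFQ|S). The substrate sits between flexible linkers in a Bxb1-sfGFP-TEVs-SsrA fusion, so cleavage stabilises Bxb1 and speeds flipping of a recombination array, read by NGS. The value is the raw area under the fraction-flipped curve over 0-4 h after rhamnose induction (AUC4h), with ≥20 reads per time point. It is not background-subtracted; inactive controls average about 0.047.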
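Note: Bxb1 expression induced with 0.2% (w/v) L-rhamnose at OD600 near 0.5, cultures sampled hourly, flipped fraction per protease–substrate barcode pair counted by paired-end Illumina sequencing.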

Variant | area with substrate EALYFQS | area with substrate EGLYFQS | area with substrate EHLYFQS | area with substrate EKLYFQS | area with substrate ELLYFQS | area with substrate EMLYFQS | area with substrate EQLYFQS | area with substrate ESLYFQS | area with substrate EVLYFQS | area with substrate EYLYFQS | area with substrate EDLYFQS | area with substrate EFLYFQS | area with substrate EILYFQS | area with substrate EPLYFQS | area with substrate ERLYFQS | area with substrate ETLYFQS | area with substrate EWLYFQS | area with substrate ECLYFQS | area with substrate EELYFQS
L156R | 0.0561 | 0.0662 | 0.0564 | 0.0864 | 0.0329 | 0.0656 | 0.0457 | 0.0524 | 0.0726 | 0.0144 |  |  |  |  |  |  |  |  | 
S169D | 0.067 | 0.0735 |  | 0.0647 | 0.0575 |  | 0.0507 | 0.0567 | 0.0514 |  | 0.0634 | 0.0595 | 0.0583 | 0.0557 | 0.0634 | 0.0519 | 0.0708 |  | 
S169I | 0.0638 | 0.0641 | 0.0563 | 0.0573 | 0.0605 | 0.0447 | 0.044 | 0.0607 | 0.0523 | 0.0726 |  | 0.0614 | 0.053 | 0.0619 | 0.0622 |  | 0.0372 | 0.0455 | 0.0625
S158N | 0.0991 | 0.0708 |  | 0.102 |  |  |  | 0.0808 | 0.0685 |  | 0.0813 | 0.0764 | 0.0604 | 0.0917 | 0.0769 |  |  |  | 0.104
S158Y | 0.0547 | 0.048 | 0.0403 | 0.0602 | 0.0521 | 0.0593 | 0.0618 | 0.0585 |  |  |  | 0.0391 | 0.0617 |  | 0.0533 |  | 0.0501 | 0.0511 | 
T132E | 0.0591 |  |  | 0.0647 | 0.0539 | 0.0601 | 0.0686 | 0.0594 | 0.0613 | 0.065 |  | 0.0602 | 0.0537 | 0.0528 | 0.0616 |  |  |  | 0.0592
T132C | 0.142 | 0.0885 |  |  | 0.107 |  | 0.13 | 0.111 | 0.104 | 0.11 |  |  | 0.094 |  | 0.0885 |  | 0.108 | 0.0876 | 
T147R | 0.0694 | 0.0541 | 0.0651 | 0.0711 | 0.0739 |  | 0.0733 | 0.0606 | 0.0513 | 0.0646 |  |  | 0.057 |  | 0.0576 |  |  | 0.0657 | 0.0616
T147F | 0.0596 | 0.046 | 0.07 |  | 0.0147 | 0.0638 | 0.0589 | 0.0558 | 0.0578 |  | 0.0745 |  | 0.0477 |  | 0.0736 | 0.0481 |  |  | 0.0558
T147M | 0.0777 |  |  |  | 0.067 |  | 0.108 | 0.0882 | 0.0818 |  | 0.12 |  | 0.0684 |  | 0.0878 | 0.105 |  | 0.0847 | 
V165P | 0.0537 | 0.0434 |  | 0.0374 | 0.0634 | 0.0562 | 0.0559 | 0.0608 |  | 0.049 |  | 0.0606 | 0.054 | 0.0508 | 0.0631 |  | 0.0452 | 0.0594 | 0.125
D149T | 0.116 | 0.0736 | 0.0869 | 0.0873 | 0.0713 | 0.0981 | 0.091 | 0.0917 | 0.0895 |  | 0.105 |  | 0.0672 |  | 0.0923 | 0.0649 | 0.0026 |  | 0.114
F163I | 0.111 | 0.0627 | 0.106 |  | 0.0673 | 0.106 |  | 0.0906 | 0.099 | 0.0596 | 0.122 |  | 0.108 |  |  | 0.0585 | 0.0698 |  | 
T159I | 0.127 | 0.104 |  | 0.155 |  | 0.155 | 0.129 |  |  | 0.103 | 0.165 |  | 0.0918 | 0.152 | 0.107 |  | 0.123 | 0.106 | 
C131M | 0.12 |  | 0.0968 |  |  |  | 0.113 |  | 0.0922 | 0.118 |  |  | 0.0965 |  | 0.11 |  |  | 0.0809 | 0.076
I164G | 0.0465 |  | 0.0525 | 0.036 | 0.0371 | 0.043 | 0.0495 | 0.0514 | 0.0577 |  |  | 0.0571 | 0.0576 | 0.0445 | 0.0543 | 0.0623 | 0.0335 | 0.0411 | 0.06
I164Q | 0.0455 | 0.0509 |  |  | 0.0504 | 0.058 | 0.0445 | 0.0487 | 0.0522 | 0.0543 | 0.0565 |  | 0.0488 | 0.0524 | 0.0527 |  | 0.049 | 0.0568 | 
P134W | 0.0728 |  |  | 0.0594 |  |  | 0.0751 | 0.0738 |  | 0.0694 | 0.0759 |  | 0.0684 | 0.0351 |  | 0.0798 | 0.0628 |  | 
P134Q | 0.113 | 0.0937 |  | 0.104 | 0.0899 |  | 0.105 |  |  | 0.104 |  |  | 0.0959 | 0.095 | 0.121 |  |  | 0.13 | 
P155I | 0.0681 | 0.0647 |  | 0.067 | 0.057 |  | 0.0656 | 0.0686 | 0.041 | 0.0721 |  | 0.0838 | 0.0481 | 0.0698 | 0.0696 | 0.0602 | 0.0967 | 0.0667 | 
I167V | 0.0751 | 0.0891 | 0.112 |  | 0.0674 | 0.118 | 0.0886 | 0.0881 | 0.0896 |  |  |  | 0.0971 | 0.058 |  |  |  | 0.0985 | 
I167R | 0.0472 | 0.0546 |  | 0.0533 | 0.0341 |  | 0.0438 | 0.0526 | 0.0398 |  |  |  | 0.0511 | 0.0478 | 0.0551 |  |  | 0.0423 | 0.0484
V157W | 0.105 | 0.0722 |  | 0.0722 | 0.0685 | 0.07 | 0.0672 | 0.0673 | 0.0653 | 0.0631 |  |  | 0.0627 | 0.0823 | 0.0624 |  |  | 0.0724 | 0.0696
V157E | 0.047 | 0.0566 |  | 0.0649 |  |  | 0.0492 | 0.0453 | 0.0054 | 0.0648 |  | 0.0581 | 0.067 | 0.0487 | 0.0694 | 0.0482 |  |  | 0.057
K142W | 0.0741 | 0.0605 |  |  |  |  |  | 0.0657 | 0.0734 |  |  |  | 0.0775 | 0.0888 |  |  |  | 0.0895 | 0.088
F133L | 0.111 | 0.0987 | 0.143 | 0.141 | 0.104 |  |  |  | 0.101 |  |  |  |  | 0.11 | 0.106 |  | 0.146 | 0.104 | 
F133M | 0.0735 | 0.0849 | 0.105 | 0.105 | 0.107 | 0.118 | 0.0723 | 0.116 | 0.0936 |  | 0.145 | 0.0908 | 0.107 |  | 0.092 |  |  |  | 0.12
F133P | 0.0771 | 0.0619 | 0.0617 | 0.0562 |  | 0.0712 | 0.0705 | 0.0701 | 0.0564 |  | 0.132 |  | 0.0448 | 0.0684 | 0.0749 | 0.0578 | 0.0792 |  | 0.066
